# Experimental data as given in the supplement of paper PMC8728848.
# The other results are listed elsewhere or left out.
# B1: P-Selectin (Mus musculus), Q01102 (protein)
# chain: MAGCPKGSWTPRLRSVILGGAQLIWFSALISELVNQKEVAAWTYNYSTKAYSWNNSRVFCRRHFTDLVAIQNKNEIAHLNDVIPFFNSYYWIGIRKINNKWTWVGTNKTLTEEAENWADNEPNNKKNNQDCVEIYIKSNSAPGKWNDEPCFKRKRALCYTASCQDMSCSNQGECIETIGSYTCSCYPGFYGPECEYVKECGKVNIPQHVLMNCSHPLGEFSFNSQCTFSCAEGYELDGPGELQCLASGIWTNNPPKCDAVQCQSLEAPPHGTMACMHPIAAFAYDSSCKFECQPGYRARGSNTLHCTGSGQWSEPLPTCEAIACEPPEIPIHGSMDCVPSTGTFGYNSSCTFLCAEGFVLKGNDAIQCADSGQWTAPAPFCEALQCPEFPVPSKAQVNCSDPFGTLTYQSVCSFSCDEGSLLVGASVIRCLATGHWNGAPPECQAVSCAPMLSPENGSMTCVQPLGNSTYKSTCQFMCDEGFYLSGPERLDCSPSGHWTGTPPTCEAIKCPGIFAPEQGNLDCSHVHGEFGVGSICHFSCNEDFELLGSENVECTVSGRWSAPPPTCKGITSLPAPAVRCPALTTPGQGTMSCQHHLGSFGPNTTCYFGCKTGFTLRGANSLRCRASGQWTAVTPMCRAVKCSELHMDTAVAMNCSNPWGNFSYGSTCTFQCPEGQSLNGSVRATCREDGHWSDAMPTCQAGTLTIQEALTYLGGAVASTTGLAVGGTLLALLRKRLRKKDDGKCPLNPHSHLGTYGVFTNAAYDPTP
# How the values were obtained:
# Test in all cases: glycan array binding signal (z-score within array); higher = stronger binding
# Settings in all cases: glycan notation: IUPAC condensed, linker removed
# Fuc(a1-2)Gal = target: Fuc(a1-2)Gal
# How it was run: (§1)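 Columns mapping to the same glycan were averaged after glycan names were converted to IUPAC-condensed notation. The data come from 3228 arrays in the Consortium for Functional Glycomics database, limited to those with an available protein sequence. Binding is reported as a within-array Z-score averaged across arrays of one protein sequence and across linkers.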
# Fuc(a1-2)Gal(b1-3)GalNAc = target: Fuc(a1-2)Gal(b1-3)GalNAc
# How it was run: as §1
# [1] = target: Fuc(a1-2)Gal(b1-3)GalNAc(b1-3)Gal
# How it was run: as §1
# [2] = target: Fuc(a1-2)Gal(b1-3)GalNAc(b1-3)Gal(a1-4)Gal(b1-4)Glc
# How it was run: as §1
# [3] = target: Fuc(a1-2)Gal(b1-3)GalNAc(b1-4)[Neu5Ac(a2-3)]Gal(b1-4)Glc
# How it was run: as §1
# Fuc(a1-2)Gal(b1-3)GlcNAc = target: Fuc(a1-2)Gal(b1-3)GlcNAc
# How it was run: as §1
# [4] = target: Fuc(a1-2)Gal(b1-3)GlcNAc(b1-3)Gal(b1-4)Glc
# How it was run: as §1
# [5] = target: Fuc(a1-2)Gal(b1-3)[Fuc(a1-4)]GlcNAc
# How it was run: as §1
# Fuc(a1-2)Gal(b1-4)Glc = target: Fuc(a1-2)Gal(b1-4)Glc
# How it was run: as §1
# Fuc(a1-2)Gal(b1-4)Glc6S = target: Fuc(a1-2)Gal(b1-4)Glc6S
# How it was run: as §1
# Fuc(a1-2)Gal(b1-4)GlcNAc = target: Fuc(a1-2)Gal(b1-4)GlcNAc
# How it was run: as §1
# [6] = target: Fuc(a1-2)Gal(b1-4)GlcNAc(b1-3)Gal(b1-4)GlcNAc
# How it was run: as §1
# [7] = target: Fuc(a1-2)Gal(b1-4)GlcNAc(b1-3)Gal(b1-4)GlcNAc(b1-3)Gal(b1-4)GlcNAc
# How it was run: as §1
# [8] = target: Fuc(a1-2)Gal(b1-4)GlcNAc6S
# How it was run: as §1
# [9] = target: Fuc(a1-2)Gal(b1-4)[Fuc(a1-3)]GlcNAc
# How it was run: as §1
# [10] = target: Fuc(a1-2)Gal(b1-4)[Fuc(a1-3)]GlcNAc(b1-3)Gal(b1-4)[Fuc(a1-3)]GlcNAc
# How it was run: as §1
# [11] = target: Fuc(a1-2)Gal(b1-4)[Fuc(a1-3)]GlcNAc(b1-3)Gal(b1-4)[Fuc(a1-3)]GlcNAc(b1-3)Gal(b1-4)[Fuc(a1-3)]GlcNAc
# How it was run: as §1
# Fuc(a1-2)Gal6S(b1-4)Glc = target: Fuc(a1-2)Gal6S(b1-4)Glc
# How it was run: as §1
# [12] = target: Fuc(a1-2)Gal6S(b1-4)Glc6S
# How it was run: as §1
# [13] = target: Fuc(a1-2)Gal6S(b1-4)GlcNAc
# How it was run: as §1
# Fuc(a1-2)GlcNAc = target: Fuc(a1-2)GlcNAc
# How it was run: as §1
# Fuc(a1-2)[Gal(a1-3)]Gal = target: Fuc(a1-2)[Gal(a1-3)]Gal
# How it was run: as §1
# [14] = target: Fuc(a1-2)[Gal(a1-3)]Gal(b1-3)GlcNAc
# How it was run: as §1
# [15] = target: Fuc(a1-2)[Gal(a1-3)]Gal(b1-4)Glc
# How it was run: as §1
# [16] = target: Fuc(a1-2)[Gal(a1-3)]Gal(b1-4)GlcNAc
# How it was run: as §1
# [17] = target: Fuc(a1-2)[Gal(a1-3)]Gal(b1-4)[Fuc(a1-3)]GlcNAc
# How it was run: as §1
# [18] = target: Fuc(a1-2)[Gal(a1-4)]Gal(b1-4)GlcNAc
# How it was run: as §1
# [19] = target: Fuc(a1-2)[GalNAc(a1-3)]Gal
# How it was run: as §1
# [20] = target: Fuc(a1-2)[GalNAc(a1-3)]Gal(b1-3)GlcNAc
# How it was run: as §1
# [21] = target: Fuc(a1-2)[GalNAc(a1-3)]Gal(b1-4)Glc
# How it was run: as §1
binder,measurement,setting,value
B1,glycan array binding signal (z-score),Fuc(a1-2)Gal,-0.783
same,glycan array binding signal (z-score),Fuc(a1-2)Gal(b1-3)GalNAc,-0.39
same,glycan array binding signal (z-score),[1],-0.303
same,glycan array binding signal (z-score),[2],-0.365
same,glycan array binding signal (z-score),[3],-0.426
same,glycan array binding signal (z-score),Fuc(a1-2)Gal(b1-3)GlcNAc,-0.472
same,glycan array binding signal (z-score),[4],-0.447
same,glycan array binding signal (z-score),[5],0.964
same,glycan array binding signal (z-score),Fuc(a1-2)Gal(b1-4)Glc,-0.7
same,glycan array binding signal (z-score),Fuc(a1-2)Gal(b1-4)Glc6S,-0.065
same,glycan array binding signal (z-score),Fuc(a1-2)Gal(b1-4)GlcNAc,-0.359
same,glycan array binding signal (z-score),[6],-0.467
same,glycan array binding signal (z-score),[7],-0.435
same,glycan array binding signal (z-score),[8],-0.129
same,glycan array binding signal (z-score),[9],0.373
same,glycan array binding signal (z-score),[10],0.133
same,glycan array binding signal (z-score),[11],0.167
same,glycan array binding signal (z-score),Fuc(a1-2)Gal6S(b1-4)Glc,-0.301
same,glycan array binding signal (z-score),[12],0.13
same,glycan array binding signal (z-score),[13],-0.254
same,glycan array binding signal (z-score),Fuc(a1-2)GlcNAc,-0.751
same,glycan array binding signal (z-score),Fuc(a1-2)[Gal(a1-3)]Gal,-0.534
same,glycan array binding signal (z-score),[14],-0.624
same,glycan array binding signal (z-score),[15],-0.517
same,glycan array binding signal (z-score),[16],-0.516
same,glycan array binding signal (z-score),[17],0.906
same,glycan array binding signal (z-score),[18],-0.442
same,glycan array binding signal (z-score),[19],-0.41
same,glycan array binding signal (z-score),[20],-0.409
same,glycan array binding signal (z-score),[21],-0.5
